The supplement of paper PMC11417369
The other results are listed elsewhere or left out.

Tested on: PfAP2-HC AP2 domain (GST-tagged)
Assay: gcPBM binding intensity (ln(normalized median fluorescence intensity)); higher = stronger DNA binding
Method in brief: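 For binding intensity, the highest Masliner-normalised natural-log median intensity across replicate spots of either probe orientation was taken. Protein bound to the array was stained with Alexa488 anti-GST antibody and scanned at 488 nm. The protein, GST-tagged P. falciparum DNA-binding domains from E. coli at about 25 μg on average, had been applied for 1 h to an Agilent 4 × 180k array of primer-extended double-stranded 36-bp intergenic genomic probes and negative controls.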

Sequence | gcPBM binding intensity (ln)
TGACATAAAAAATATACACACTATAATATATATACT [CACACA_site4898] | 9.81
TGTATCCATATTTGTTCACACACACCCATATTTATA [CACACA_site9190] | 10.4
ATAATATGTATGGTCACACAGACAAGGAAAGAATAA [CACACA_site5164] | 9.99
GTATATTTTAATATGACACACATATTATATATATAT [CACACA_site2483] | 9.89
AAAAAAAAAAAAAAATGTACATATATATATATATAT [XGTACX_site876] | 9.64
ATAATAATATTGTGTACACAATAATTTGTCAAATCA [CACACA_site6019] | 9.69
ACATATACAAGACACACACACAACGTTTTAATAAAT [CACACA_site7017] | 11.2
AAGGAATATGTATATACACACAGGTACATATATATA [CACACA_site441] | 9.93
AAAAAATAATAATAATGTACAAATAAAATAAAAACA [XGTACX_site6568] | 9.92
TCGTGTGAAAATATTACACACATTTACTATAGTATC [CACACA_site7590] | 9.91
ATAAAAATTGAAACATGTACACATATTCATTTTATA [XGTACX_site7968] | 9.58
ATATATTTTTACCATACACACATATAATAAATATAT [CACACA_site3722] | 9.86
TCATTAATATTTCATAGTACAATTTTGTCTAATTGT [XGTACX_site6720] | 9.55
TTATATTATACATACACACCCATATAACATGTTTTT [CACACA_site6539] | 9.89
AATGGAAAAAAAAAAATAAATACAAATAAATACAAA [GTGCAC_negctrl_site407] | 9.63
TATTTTTTTCTTACTACACACATATATATGCTTTCC [CACACA_site4058] | 10
CCCCCCGTGTTATATACACACATAATCAAATAAAAT [CACACA_site4111] | 10.5
AGAAATAAGAAATATACACACATATATATATATATA [CACACA_site2808] | 9.69
TCTTATTAAAATATTTATATAGGTAATCACAATATT [GTGCAC_negctrl_site568] | 9.76

Sequence | gcPBM binding intensity (ln)
TATAAAATAAGACATGCATGTTATACATATATATAT [TGCATGCA_site314] | 9.89
TTTTGTTATGAGAGGGTGCTAATATTTGGATATAAA | 9.86
AAAAAAAGAAAAATTGCACACACTTATAAAAATATA [CACACA_site4014] | 9.88
AAAAAAAAAAAAAGTAGTACATAATATGTTCCTCCT [XGTACX_site8356] | 9.47
ATTATAAATTAAAATACACACATATATACCTAATAT [CACACA_site5541] | 9.84
ATATATAATTACACAAATAAAAAAATAAAATGAAAT [CACACA_negctrl_site1513] | 9.79
AGAATAAAAATACAAGCACACATGTATGAAATATAT [CACACA_site3213] | 10.2
TGAACAATGTATAATTGTACGCAACGAAAATAAAAA [XGTACX_site1559] | 9.74
ATCATGTTATATATGTGTACATATATATGATATAAT [XGTACX_site991] | 9.69
AAAAAAAAAATACAACAAAGTTAAATAAATAAATAA [GTGCAC_negctrl_site402] | 9.63
AAATAAAAGGTTGAGAGTACATTTTTGTGTATGTAT [XGTACX_site5547] | 9.72
ATATTTCATTAATGAACACACAAAGAGGTATATAAA [CACACA_site1519] | 9.9
ATATTTAAAAATATAGTGCAATTATTCTAATGTGTT | 9.59
AGCTCTCAAAATTATTCACACGTGTCCTGTTATATA [CACACA_site5415] | 10.1
TTTTTTCTTTTATGTGAAATGTAATATTGTTATATA [GTGCAC_negctrl_site715] | 9.51
AGGTGATTGATATATACACACATACCTATATTTATA [CACACA_site7348] | 9.79
TGTTTATTTAATAATATTTTTTTTTTTATTATATTA [XGTACX_negctrl_site56] | 9.48
TTATTAAAATATTCTAGTACATATAAAAGGAGAACA [XGTACX_site4374] | 9.63
GTGCTTATTTATACATGTACAAATGATAAGTTTGTA [XGTACX_site169] | 9.66

Sequence | gcPBM binding intensity (ln)
GAAATAAATATATATGCATGTACTTTAATATTATTA [TGCATGCA_site904] | 9.66
TAAATATATTCATAAAGTACAAAGCAAAATTGTCTA [XGTACX_site7274] | 9.63
ATATATTATTTTAAATGTACTCATAATAGAAATGTC [XGTACX_site40] | 9.54
ATATAAAGAAAAGGAACACACAAATATATATATATA [CACACA_site463] | 9.8
CACACAGGTAAAAAGGTGCAGTTGAAATATTCCTCA [GTGCAC_site9730] | 9.69
TGATATTTTATTATTAAAATATATACATATATATAT [CACACA_negctrl_site1456] | 9.76
ATAAAAATAAAATGGACACACATATATACCTATTTG [CACACA_site5761] | 10.1
AAGAAAAAAAAAAAAAAAGATACTTTTTTAAAACTA [TGCATGCA_negctrl_site13] | 9.32
TTATATTTTTACAAGAGTACATATATATATATATAT [XGTACX_site5383] | 9.55
GTGCAATATTTATTTTGTACATATTTATCAATAAAC [XGTACX_site8297] | 9.52
ACATCGATTTATATTCTGCACTGAAGAAACTACAAC [GTGCAC_site9967] | 9.59
ATTAAATATATTAAATGTACATAATATATATATATA [XGTACX_site5032] | 9.76
TTTATTTGATGAACATGTACAAAAAAACAAAGAACA [XGTACX_site823] | 9.64
TCAAACCAGTTGATGTGTACACATATAGTAATAATT [XGTACX_site6014] | 9.91
TATTTATACATAGGTGGTACTACTTTAAACAAAAAA [XGTACX_site5062] | 9.51
TATATGGAGAGATATGCACACTGTATGAATGCCCCC [CACACA_site8853] | 10.1
AAATAAATAATATTCACACATAAAAAAAATGGAGTT [CACACA_site4525] | 9.77
TTGCACAGATTAATCAAAAATTTTAAACCAAATATA [XGTACX_negctrl_site38] | 9.45
TATTTACACAAAATAAAATATATTATATATATATAT [TGCATGCA_negctrl_site381] | 9.47
